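96-well plates; 48 h exposure; 5 concentrations. Endpoints by linear interpolation between flanking doses. Not reached: highest tested concentration assigned. The concentration for 50% growth inhibition is given as GI50. TGI is the concentration that stops growth completely.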
Tested on: NCI-H322M lung
Test: growth of human tumour cells (NCI), 48 h

Compound	TGI [µM]	GI50 [µM]
NC1=NN(c2ccccc2)C(=O)C1C(=O)C(=O)Nc1cccc(C(F)(F)F)c1 (centres undefined)	> 100	–
COc1cc(-c2ccc(-[n+]3nc(-c4ccc([N+](=O)[O-])cc4)nn3-c3ccc([N+](=O)[O-])cc3)c(OC)c2)ccc1-[n+]1nc(-c2ccc([N+](=O)[O-])cc2)nn1-c1ccc([N+](=O)[O-])cc1	39.8	12.8
C[N+]1(C)C2CCC1CC(OC(=O)C(CO)c1ccccc1)C2 (centres undefined)	> 100	–
C=C1[C@H](OCC(C)C)[C@@H](OCC(C)C)[C@@H](O)C(C)(C)/C=C/[C@H](C)C(=O)[C@@]2(O)C[C@H](C)[C@H](O)[C@@H]2[C@H]1OCC(C)C	> 7.5	–
c1cc2[se][se]c3c4cccc5[se][se]c(c(c1)c23)c54	> 100	–
COc1ccc2c(c1)C(=O)c1c-2c(N2CCN(C(=O)CN(C)C)CC2)nc2ccccc12	96.6	28.4
CCCN1C(=O)/C(=C/c2ccc(O)cc2)SC1=Nc1ccccc1	35.7	19.1
CC(C)(C)c1cc(N=NC(=S)NCc2ccccc2)cc(C(C)(C)C)c1O	> 100	–
COCC1OCCN1C (centres undefined)	> 100	–
O=C1CC(n2cccc2)c2cc(Br)sc21 (centres undefined)	> 100	–
COc1ccc2c(c1)/C(=C/c1c(-c3ccc(C)cc3)nc3sc(C)cn13)C(=O)N2	> 100	> 100
Cc1ccc(NC(=O)/C(=N/NC(=O)CC#N)C2C(=O)N(c3ccccc3)N=C2N)cc1C (centres undefined)	> 100	–
CCSc1nc(=S)[nH]c2[nH]ncc12	> 100	> 100
COc1ccc(OC)c2c(=O)cc(-c3ccccc3)[nH]c12	> 100	–
CNC(=O)c1ccc(Nc2nc(OC3CCCC3)c3c(-c4ccc5nc(C)oc5c4)c[nH]c3n2)c(OC)c1	> 100	11
Cc1nc(Nc2ccccc2)sc1C(=O)NNC(N)=O	> 100	–

Compound	TGI [µM]	GI50 [µM]
CCOC(=O)C1C(C(C)C)C2(C#N)C(=N)OC1(C)C2(C#N)C#N (centres undefined)	> 100	–
NC(=S)N/N=C1\C(=O)N(c2cccc([N+](=O)[O-])c2)C(=O)C1C(=O)Nc1cccc([N+](=O)[O-])c1 (centres undefined)	> 100	–
Nc1c(C(=O)Nc2cccc3ccccc23)sc2nc3c(cc12)CCCCC3	> 50	3.98
NC(=S)Nc1nnc(-c2ccc(-c3nnc(NC(N)=S)o3)cc2)o1	> 100	–
CCOP(=O)(CCC(O)CNc1nc(N)nc(Cl)c1N=Nc1ccc(Cl)cc1)OCC (centres undefined)	28.3	–
CCC/C(Cl)=N\OC(=O)Nc1ccc(Br)cc1	27.8	–
Cc1cccc(Oc2ccc(Nc3ncnc4ccc(NC(=O)CN5CCN(C)CC5)cc34)cc2Cl)c1	2.11	0.67
CCC(C)C(NC(=O)C(CCCCN)NC(=O)C(NC(=O)C(CCC(N)=O)NC(=O)C(CCCNC(=N)N)NC(C)=O)C(C)CC)C(=O)NC(Cc1c[nH]c2ccccc12)C(=O)NC(Cc1ccccc1)C(=O)NC(CCC(N)=O)C(=O)NC(CC(N)=O)C(=O)NC(CCCNC(=N)N)C(=O)NC(CCCNC(=N)N)C(=O)NC(CCSC)C(=O)NC(CCCCN)C(=O)NC(Cc1c[nH]c2ccccc12)C(=O)NC(CCCCN)C(=O)NC(CCCCN)C(N)=O (centres undefined)	> 50	–
COc1cc(/C=C2\C[C@H]3[C@@H]4CC=C5C[C@@H](OC(C)=O)CC[C@]5(C)[C@H]4CC[C@]3(C)[C@H]2OC(C)=O)ccc1OCCCn1ccnc1	20.6	9.76
COc1ccccc1NC(=S)Nc1cccc(C)n1	> 100	–
O=C1CN2CCC1C/C2=C\c1ccnc2c(Cl)cccc12 (centres undefined)	> 100	> 100
COc1c(C(=O)O)cccc1-c1cccc(C(=O)NCCN(CCNC(=O)c2cccc(-c3cccc(C(=O)O)c3OC)c2OC)CCNC(=O)c2cccc(-c3cccc(C(=O)O)c3OC)c2OC)c1OC	> 100	–
O=[N+]([O-])c1ccccc1/C=C/C=C1c2ccccc2-c2ccccc21	> 100	> 100
O=C1CCC(NC(=O)Cc2ccc(O)cc2)C(=O)N1 (centres undefined)	> 2500	–
COc1cc2c(cc1OCCCCCN1CCN(c3cc(=O)oc4c(C)c(OC)ccc34)CC1)N=C[C@@H]1CCCN1C2=O	0.516	0.116
OC(c1ccc(-c2ccccc2)cc1)(c1ccc(-c2ccccc2)cc1)c1ccc(-c2ccccc2)cc1	> 100	–
